Measured values reported in PubChem BioAssay AID686978 (National Center for Advancing Translational Sciences (NCATS), 2013).
About 64,000 (15%) of roughly 420,000 compounds were called active. The shares of active, inactive and inconclusive entries below differ from those in the screen. Calls come from the whole dose curve; as a rule, active = well fitted inhibition curve with a large enough effect; inconclusive = small, poorly fitted or top-dose-only effect; inactive = flat fitted curve, though single readings scatter. Potencies of inconclusive entries are left out as doubtful fits.
% is set by controls: 0 for no effect and ±100 for the full control effect; potency is the fitted concentration of half-maximal effect; tags give direction and shape of the fitted curve.

Assay: qHTS for Inhibitors of human tyrosyl-DNA phosphodiesterase 1 (TDP1): qHTS in cells in absence of CPT; note: nearly all actives have a fitted effect of over 55% in size
Conditions: DT40 Tdp1-/- hTDP1 cells, no CPT, ATP luminescence, 48 h; activity change, negative = growth inhibition: at 46.2 µM (top of the series)
Summary of the method: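 A cellular qHTS used chicken DT40 cells lacking endogenous Tdp1 but carrying stably transfected human TDP1. Compounds were applied without camptothecin, and cell growth kinetics were judged by ATP-dependent luminescence after ≥48 hr.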
With `Cc1ccc(S(=O)(=O)NCCC(c2ccc(F)cc2)c2ccco2)cc1` (configuration not stated) the Potency was inconclusive [inhibitor, single point]. For `COc1ccc(Cc2n[nH]c(=S)n2NC(=O)Nc2ccc(C)cc2)cc1`, the “activity change, negative = growth inhibition” value was inactive: -0.57%. In the case of `Cc1cccc(S(=O)(=O)Nc2cc(Cl)ccc2N2CCOCC2)c1`, the Potency is reported as inconclusive [inhibitor, partial curve]. In the case of `Cc1cc(C)c2cccnc2c1O`, the Potency is reported as active: 1.12 µM. In the case of `COc1ccc(N2CC(NC(=O)c3ccc(S(=O)(=O)N4CCCC4)cc3)CC2=O)cc1` (configuration not stated), the “activity change, negative = growth inhibition” value is reported as inactive: 6.96%. In the case of `COc1cccc(CNc2ccc3c(c2)ncn3C(C)C)c1OC`, the Potency is reported as inconclusive [inhibitor, partial curve, poor fit]. In the case of `N#Cc1c(-c2ccccc2)nc2n(-c3ccccc3)nc(C(=O)Nc3ccccc3)n2c1=O`, the Potency is reported as active: 7.31 µM. In the case of `CCOC(=O)c1ccc(NC(=O)C(CC)Sc2nc3ncccc3[nH]2)cc1` (configuration not stated), the Potency is reported as inconclusive [inhibitor, single point]. With `NC(=O)c1cccc(-c2ccnc3c2CC(C(=O)NCc2ccccc2)O3)c1` (configuration not stated) the Potency was active: 1.3 µM. With `CCC1CCCCN1C(=S)NC(=O)c1ccc([N+](=O)[O-])cc1` (configuration not stated) the Potency was inconclusive [inhibitor, single point]. For `COc1cc2c(cc1NC(=O)Cc1ccc(C)cc1)oc1ccccc12`, the Potency was inconclusive [inhibitor, single point]. For `O=C(c1csnn1)N1CCC2(CCCN(c3ccc(-c4ccccc4)cc3)C2)CC1`, the Potency was inconclusive [inhibitor, single point]. In the case of `COC(=O)c1ccccc1-c1ccc(/C=C2\C(=O)N(c3ccccc3)N=C2c2ccccc2)o1`, the Potency is reported as inconclusive [inhibitor, single point]. In the case of `COc1cccc(CC(NC(C)=O)C(=O)NC2CCN(c3c(Cc4ccccc4)c(C)nc4ncnn34)CC2)c1` (configuration not stated), the “activity change, negative = growth inhibition” value is reported as inactive: -3.44%. For `CCNc1nc(Nc2ccc(C)c(Cl)c2)c2cnn(C)c2n1`, the Potency was active: 1.64 µM. With `Cc1ccc(-n2c(C)nnc2SCC(=O)N2CCc3ccccc3C2)cc1C` the activity change, negative = growth inhibition was inconclusive: -32.1% [inhibitor]. With `S=C(NCCc1ccccc1)Nc1ccc(Br)cc1` the Potency was active: 23.1 µM. With `O=C(Nc1ccc(Cl)cc1)Nc1ccc(C(=O)N2CCOCC2)cc1` the Potency was inconclusive [inhibitor, single point]. In the case of `O=C1C=C(/C=C/C2C=CC=CC2)C[C@@H](c2ccc(Cl)cc2)C1` (some centres not stated), the Potency is reported as inconclusive [inhibitor, single point]. For `CC(=O)Nc1cccc(-c2ccnc3c2CC(C)(C(=O)Nc2cccc(C(C)=O)c2)O3)c1` (configuration not stated), the Potency was active: 6.51 µM. In the case of `CC(=O)NC(c1ccc(Cl)cc1Cl)c1ccc2cccnc2c1O` (configuration not stated), the Potency is reported as active: 4.61 µM. In the case of `O=C(NNC(=S)Nc1ccc(F)cc1)[C@H]1C[C@@H]1c1ccccc1`, the “activity change, negative = growth inhibition” value is reported as inactive: -21.6%. For `CCOc1ccc(Oc2ccc(NC(=O)[C@@H](NC(N)=O)[C@@H](C)CC)cc2)cc1`, the “activity change, negative = growth inhibition” value was inactive: 22.4%. With `c1ccc2c3c(c(CN4CCCCC4)cc2c1)COC3` the activity change, negative = growth inhibition was inconclusive: -30% [inhibitor]. With `N#CC1=C(N)Oc2c(ccc3cccnc23)C1c1ccncc1` (configuration not stated) the Potency was inconclusive [inhibitor, single point]. In the case of `Cc1ccc(CNC(=O)c2ccc(CSCc3ccc(Cl)cc3)o2)cc1`, the Potency is reported as active: 16.4 µM. In the case of `Cc1ccc(SCCOCCN2CCc3ccccc3C2)cc1`, the Potency is reported as active: 16.4 µM. With `COc1ccc(-c2[nH][nH]c(=O)c2NC(=O)c2ccccc2Br)cc1` the “activity change, negative = growth inhibition” value was inactive: -1.6%. With `CCOc1cc(Br)cc(/C=C2\SC(=Nc3ccccc3)NC2=O)c1O` the Potency was inconclusive [inhibitor, single point]. In the case of `COCCNC(=S)N/N=C/c1ccc(OCc2ccc(C(=O)OC)cc2)c(OC)c1`, the Potency is reported as active: 23.1 µM. For `CCn1c(=O)cc(SCC(=O)N2CCC(C)CC2)c2ccccc21`, the activity change, negative = growth inhibition was inconclusive: -31.6% [inhibitor]. For `Cc1cccc(N2CCN(S(=O)(=O)c3c(C)[nH]c(C)c3C(=O)N3CCCC3)CC2)c1C`, the Potency was inconclusive [inhibitor, single point]. In the case of `COc1cc(/C=C(\C#N)c2nc3ccc(C)cc3[nH]2)cc([N+](=O)[O-])c1O`, the Potency is reported as active: 20.6 µM. With `CCN(CC)c1ccc(NC(=O)c2cnn(CC)c2)cc1` the Potency was inconclusive [inhibitor, single point]. For `CN(C)CCSc1nc2cc(S(=O)(=O)N3CCCCC3)ccc2o1`, the Potency was inconclusive [inhibitor, single point]. For `CCc1nc(CN2CCCC(C(=O)c3ccc4c5c(cccc35)CC4)C2)c(C)[nH]1` (configuration not stated), the Potency was active: 16.4 µM. With `O=C(O)COc1ccc(-c2nccc(-c3ccccn3)n2)cc1` the Potency was inconclusive [inhibitor, single point]. In the case of `CCCCNS(=O)(=O)c1ccc2nc(NC(=O)c3cccnc3)sc2c1`, the Potency is reported as inconclusive [inhibitor, single point]. With `Cc1cc(C)n2nc(-c3cccc(Br)c3)cc2n1` the Potency was inconclusive [inhibitor, single point]. With `N#C/C(=C/c1ccc([N+](=O)[O-])cc1)C(N)=O` the Potency was inconclusive [inhibitor, single point]. In the case of `CC(=O)c1ccc(OCC(=O)NC2CCCN(Cc3ccccc3F)C2)cc1` (configuration not stated), the Potency is reported as inconclusive [inhibitor, single point]. For `O=C(/C=C/c1ccco1)NCCc1ccccc1`, the “activity change, negative = growth inhibition” value was inactive: -26.9%. For `O=S(=O)(Nc1cccc(-c2cn3c(n2)SCC3)c1)c1ccccc1`, the Potency was inconclusive [inhibitor, single point]. For `Nc1ncc([N+](=O)[O-])cc1S(=O)(=O)c1ccccc1`, the Potency was inconclusive [inhibitor, partial curve]. With `O=C(NC(=C(Cl)Cl)S(=O)(=O)c1ccc(Cl)cc1)c1ccccc1` the Potency was active: 9.2 µM. In the case of `O=C(NCc1cccc(F)c1)C1=Cc2cc(Br)ccc2OC1`, the Potency is reported as inconclusive [inhibitor, single point]. In the case of `Cc1ccc(-n2ccnc(NCc3ccccc3)c2=O)cc1C`, the Potency is reported as inconclusive [inhibitor, partial curve, poor fit].
